This is one part of the list. The full chains were built here from the parent and the listed change. Values near 0.05 are background.
B1: TEV protease; numbered along this chain (parent)
chain: MGESLFKGPRDYNPISSSICHLTNESDGHTTSLYGIGFGPFIITNKHLFRRNNGTLVVQSLHGVFKVKDTTTLQQHLVDGRDMIIIRMPKDFPPFPQKLKFREPQREERICLVTTNFQTKSMSSMVSDTSCTFPSGDGIFWKHWIQTKDGQCGSPLVSTRDGFIVGIHSASNFTNTNNYFTSVPKNFMELLTNQEAQQWVSGWRLNADSVLWGGHKVFMVKPEEPFQPVKEATQL

Variants of: B1
Assay: raw area under fraction-flipped curve 0-4 h after induction (AUC4h, not background-subtracted), DNA-recorder readout of cleavage of the substrate (dimensionless); higher = more cleavage of the substrate by the protease variant
Conditions: temperature: 34 °C; time window: 0-4 h after rhamnose induction
Method: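 In vivo DNA recorder in E. coli TOP10(DE3) ΔrhaA at 34 °C. Each TEVp single-site mutant (parent TEVp 0) is paired with a single-site variant of the 7-mer TEVs (canonical ENLYFQ|S). The substrate sits between flexible linkers in a Bxb1-sfGFP-TEVs-SsrA fusion, so cleavage stabilises Bxb1 and speeds flipping of a recombination array, read by NGS. The value is the raw area under the fraction-flipped curve over 0-4 h after rhamnose induction (AUC4h), with ≥20 reads per time point. It is not background-subtracted; inactive controls average about 0.047.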
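Further: Bxb1 expression induced with 0.2% (w/v) L-rhamnose at OD600 near 0.5, cultures sampled hourly, flipped fraction per protease–substrate barcode pair counted by paired-end Illumina sequencing.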

MGESLFKGPRDYNPISSSICHLTNESDGHTTSLYGIGFGPFIITNKHLFRRNNGTLVVQSLHGVFKVKDTTTLQQHLVDGRDMIIIRMPKDFPPFPQKLKFREPQREERICLVTTNFQTKSMSSMVSDTSCTFPSGDGIDWKHWIQTKDGQCGSPLVSTRDGFIVGIHSASNFTNTNNYFTSVPKNFMELLTNQEAQQWVSGWRLNADSVLWGGHKVFMVKPEEPFQPVKEATQL [F140D]
area with substrate ENLYAQS: 0.0648
area with substrate ENLYEQS: 0.0556
area with substrate ENLYIQS: 0.0617
area with substrate ENLYKQS: 0.0628
area with substrate ENLYMQS: 0.0535
area with substrate ENLYPQS: 0.0675
area with substrate ENLYWQS: 0.0622

MGESLFKGPRDYNPISSSICHLTNESDGHTTSLYGIGFGPFIITNKHLFRRNNGTLVVQSLHGVFKVKDTTTLQQHLVDGRDMIIIRMPKDFPPFPQKLMFREPQREERICLVTTNFQTKSMSSMVSDTSCTFPSGDGIFWKHWIQTKDGQCGSPLVSTRDGFIVGIHSASNFTNTNNYFTSVPKNFMELLTNQEAQQWVSGWRLNADSVLWGGHKVFMVKPEEPFQPVKEATQL [K100M]
area with substrate ENLYAQS: 0.0504
area with substrate ENLYCQS: 0.114
area with substrate ENLYDQS: 0.052
area with substrate ENLYKQS: 0.0704
area with substrate ENLYMQS: 0.0741
area with substrate ENLYNQS: 0.0572
area with substrate ENLYPQS: 0.0717
area with substrate ENLYWQS: 0.0045

MGESLFKGPRDYNPISSSICHLTNESDGHTTSLYGIGFGPFIITNKHLFRRNNGTLVVQSLHGVFKVKDTTTLQQHLVDGRDMIIIRMPKDFPPFPQKLKFREPQREERICLVTTNFQTKSMSSMVSDTSCTFPSGDGIFWKHWIQTKDGQCGSPLVSTRDGFIVGIHSASNFTNTNNYFTSVPKNFMELLTNQEAQQWVSGWRLNADSVSWGGHKVFMVKPEEPFQPVKEATQL [L211S]
area with substrate ENLYAQS: 0.0908
area with substrate ENLYDQS: 0.0814
area with substrate ENLYGQS: 0.0587
area with substrate ENLYHQS: 0.0844
area with substrate ENLYIQS: 0.198
area with substrate ENLYKQS: 0.047
area with substrate ENLYMQS: 0.0999
area with substrate ENLYNQS: 0.0545
area with substrate ENLYQQS: 0.0478
area with substrate ENLYVQS: 0.156

MGESLFKGPRDYNPISSSICHLTNESDGHTTSLYGIGFGPFIITNKHLFRRNNGTLVVQSLHGVFKVKDTTTLQQHLVDGRDMIIIRMPKDFPPFPQKLKFREPQREERICLVTTNFQTKSMSSMVSDTSCTFPSGDGIFWKHWIQTKDGQCGSPLVSTRDGFIVGIHSASNFTNTNNYFTSVPKNFMELLTNQEAQQWVSGWRLNADSVFWGGHKVFMVKPEEPFQPVKEATQL [L211F]
area with substrate ENLYAQS: 0.0817
area with substrate ENLYDQS: 0.0617
area with substrate ENLYEQS: 0.069
area with substrate ENLYHQS: 0.0583
area with substrate ENLYKQS: 0.0755
area with substrate ENLYNQS: 0.0589
area with substrate ENLYRQS: 0.0637
area with substrate ENLYVQS: 0.12
area with substrate ENLYWQS: 0.0834

MGESLFKGPRDYNPISSSICHLTNESDGHTTSLYGIGFGPFIITNKHLFRRNNGTLVVQSLHGVFKVKDTTTLQQHLVDGRDMIIIRMPKDFPPFPQKLKFREPQREERICLVTTNFQTKSMSSMVSDTSCTFPSGDGIFWKHWIQTKDGQCGSPLVSTRDGFIVGIHSASNFTNTNNWFTSVPKNFMELLTNQEAQQWVSGWRLNADSVLWGGHKVFMVKPEEPFQPVKEATQL [Y179W]
area with substrate ENLYAQS: 0.074
area with substrate ENLYDQS: 0.0581
area with substrate ENLYEQS: 0.0548
area with substrate ENLYMQS: 0.0555
area with substrate ENLYNQS: 0.0393
area with substrate ENLYPQS: 0.0642
area with substrate ENLYSQS: 0.062
area with substrate ENLYVQS: 0.0648
area with substrate ENLYWQS: 0.0569

MGESLFKGPRDYNPISSSICHLTNESDGHTTSLYGIGFGPFIITNKHLFRRNNGTLVVQSLHGVFKVKDTTTLQQHLVDGRDMIIIRMPKDFPPFPQKLKFREPQREERICLVTTNFQTKSMSSMVSDMSCTFPSGDGIFWKHWIQTKDGQCGSPLVSTRDGFIVGIHSASNFTNTNNYFTSVPKNFMELLTNQEAQQWVSGWRLNADSVLWGGHKVFMVKPEEPFQPVKEATQL [T129M]
area with substrate ENLYAQS: 0.0531
area with substrate ENLYCQS: 0.0836
area with substrate ENLYDQS: 0.0439
area with substrate ENLYGQS: 0.0472
area with substrate ENLYHQS: 0.0765
area with substrate ENLYIQS: 0.111
area with substrate ENLYKQS: 0.057
area with substrate ENLYMQS: 0.0581
area with substrate ENLYNQS: 0.0545
area with substrate ENLYQQS: 0.0657
area with substrate ENLYRQS: 0.0566
area with substrate ENLYTQS: 0.0894
area with substrate ENLYWQS: 0.0951
area with substrate ENLYYQS: 0.0498

MGESLFKGPRDYNPISSSICHLTNESDGHTTSLYGIGFGPFIITNKHLFRRNNGTLVVQSLHGVFKVKDTTTLQQHLVDGRDMIIIRMPKDFPPFPQKLKFRFPQREERICLVTTNFQTKSMSSMVSDTSCTFPSGDGIFWKHWIQTKDGQCGSPLVSTRDGFIVGIHSASNFTNTNNYFTSVPKNFMELLTNQEAQQWVSGWRLNADSVLWGGHKVFMVKPEEPFQPVKEATQL [E103F]
area with substrate ENLYAQS: 0.0746
area with substrate ENLYDQS: 0.077
area with substrate ENLYEQS: 0.0677
area with substrate ENLYHQS: 0.0744
area with substrate ENLYIQS: 0.126
area with substrate ENLYKQS: 0.051
area with substrate ENLYLQS: 0.089
area with substrate ENLYNQS: 0.0795
area with substrate ENLYPQS: 0.0827
area with substrate ENLYRQS: 0.073
area with substrate ENLYWQS: 0.0893

MGESLFKGPRDYNPISSSICHLTNESDGHTTSLYGIGFGPFIITNKHLFRRNNGTLVVQSLHGVFKVKDTTTLQHHLVDGRDMIIIRMPKDFPPFPQKLKFREPQREERICLVTTNFQTKSMSSMVSDTSCTFPSGDGIFWKHWIQTKDGQCGSPLVSTRDGFIVGIHSASNFTNTNNYFTSVPKNFMELLTNQEAQQWVSGWRLNADSVLWGGHKVFMVKPEEPFQPVKEATQL [Q75H]
area with substrate ENLYAQS: 0.0685
area with substrate ENLYCQS: 0.0684
area with substrate ENLYDQS: 0.0519
area with substrate ENLYGQS: 0.0555
area with substrate ENLYHQS: 0.0635
area with substrate ENLYIQS: 0.0892
area with substrate ENLYKQS: 0.0692
area with substrate ENLYMQS: 0.0478
area with substrate ENLYNQS: 0.0507
area with substrate ENLYQQS: 0.0598
area with substrate ENLYRQS: 0.0594
area with substrate ENLYSQS: 0.0638
area with substrate ENLYTQS: 0.0761
area with substrate ENLYVQS: 0.0741
area with substrate ENLYWQS: 0.0606
area with substrate ENLYYQS: 0.0641

MGESLFKGPRDYNPISSSICHLTNESDGHTTSLYGIGFGPFIITNKHLFRRNNGTLVVQSLHGVFKVKDTTTLQTHLVDGRDMIIIRMPKDFPPFPQKLKFREPQREERICLVTTNFQTKSMSSMVSDTSCTFPSGDGIFWKHWIQTKDGQCGSPLVSTRDGFIVGIHSASNFTNTNNYFTSVPKNFMELLTNQEAQQWVSGWRLNADSVLWGGHKVFMVKPEEPFQPVKEATQL [Q75T]
area with substrate ENLYAQS: 0.0603
area with substrate ENLYDQS: 0.0702
area with substrate ENLYGQS: 0.0672
area with substrate ENLYHQS: 0.0622
area with substrate ENLYKQS: 0.044
area with substrate ENLYMQS: 0.0807
area with substrate ENLYNQS: 0.0649
area with substrate ENLYPQS: 0.0667
area with substrate ENLYRQS: 0.0668
area with substrate ENLYSQS: 0.0593
area with substrate ENLYTQS: 0.0693
area with substrate ENLYVQS: 0.0869
area with substrate ENLYWQS: 0.072
area with substrate ENLYYQS: 0.0597

MGESLFKGPRDYNPISSSICHLTNESDGHTTSLYGIGFGPFIITNKHLFRRNNGTLVVQSLHGVFKVKDTTTLQQHLVDFRDMIIIRMPKDFPPFPQKLKFREPQREERICLVTTNFQTKSMSSMVSDTSCTFPSGDGIFWKHWIQTKDGQCGSPLVSTRDGFIVGIHSASNFTNTNNYFTSVPKNFMELLTNQEAQQWVSGWRLNADSVLWGGHKVFMVKPEEPFQPVKEATQL [G80F]
area with substrate ENLYAQS: 0.058
area with substrate ENLYEQS: 0.0629
area with substrate ENLYHQS: 0.0702
area with substrate ENLYIQS: 0.126
area with substrate ENLYKQS: 0.0637
area with substrate ENLYMQS: 0.0756
area with substrate ENLYNQS: 0.0651
area with substrate ENLYPQS: 0.0701
area with substrate ENLYQQS: 0.0674
area with substrate ENLYWQS: 0.0696
area with substrate ENLYYQS: 0.0421
